Results on 54 molecules are retold here after article PMC4336329 (PLoS ONE, 2015).

About 2,200 (0.71%) of roughly 310,000 compounds showed an effect of 50% or more. The effect is printed as a negative number. This is one part of the list.

The target in this test is human ether-à-go-go-related gene (hERG) potassium channel (human, UniProt Q12809). Description: primary screen, population patch clamp on CHO cells stably expressing hERG.
human ether-à-go-go-related gene (hERG) potassium channel, sequence (Q12809 whole entry, looked up): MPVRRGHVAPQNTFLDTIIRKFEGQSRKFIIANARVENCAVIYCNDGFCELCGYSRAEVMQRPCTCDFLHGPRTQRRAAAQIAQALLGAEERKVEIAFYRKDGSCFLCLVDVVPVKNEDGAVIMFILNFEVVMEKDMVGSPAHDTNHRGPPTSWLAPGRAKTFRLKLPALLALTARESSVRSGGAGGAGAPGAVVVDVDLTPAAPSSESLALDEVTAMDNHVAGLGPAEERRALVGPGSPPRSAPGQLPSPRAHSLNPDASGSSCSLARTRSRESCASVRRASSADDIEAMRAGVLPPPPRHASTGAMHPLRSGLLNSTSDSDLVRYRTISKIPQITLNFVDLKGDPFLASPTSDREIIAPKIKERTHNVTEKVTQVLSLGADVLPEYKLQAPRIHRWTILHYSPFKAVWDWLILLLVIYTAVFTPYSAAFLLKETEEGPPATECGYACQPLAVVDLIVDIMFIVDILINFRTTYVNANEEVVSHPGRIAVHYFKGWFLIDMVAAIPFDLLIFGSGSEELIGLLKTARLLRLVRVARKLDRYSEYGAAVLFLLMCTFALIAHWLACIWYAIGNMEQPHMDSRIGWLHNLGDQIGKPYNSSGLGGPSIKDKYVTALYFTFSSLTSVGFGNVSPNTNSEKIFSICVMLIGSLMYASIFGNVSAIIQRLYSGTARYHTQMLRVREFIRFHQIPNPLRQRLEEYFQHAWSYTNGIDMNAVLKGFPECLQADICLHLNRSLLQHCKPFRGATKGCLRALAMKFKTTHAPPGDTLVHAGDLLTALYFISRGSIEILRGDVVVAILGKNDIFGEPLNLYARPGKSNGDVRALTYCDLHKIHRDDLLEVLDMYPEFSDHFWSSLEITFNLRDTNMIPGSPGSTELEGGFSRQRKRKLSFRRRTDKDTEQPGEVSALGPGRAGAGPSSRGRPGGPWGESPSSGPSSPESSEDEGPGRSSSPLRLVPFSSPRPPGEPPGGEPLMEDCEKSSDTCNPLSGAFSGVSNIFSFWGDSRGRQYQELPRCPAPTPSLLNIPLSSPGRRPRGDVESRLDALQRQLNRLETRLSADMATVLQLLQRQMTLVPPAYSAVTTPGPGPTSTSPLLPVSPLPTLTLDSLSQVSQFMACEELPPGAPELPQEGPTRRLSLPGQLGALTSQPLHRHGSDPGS
For the molecule `O=C(/C=C/c1ccccc1)N/C(=C/c1ccccc1)C(=O)Nc1ccc(C(=O)O)cc1`, the “hERG current change (%, negative = inhibition) at 1uM” value worked out at 10.1%.
With `COc1ccc(NC(=O)CSc2nnnn2C2CC3C=CC2C3)cc1` (stereo not drawn), the “hERG current change (%, negative = inhibition) at 1uM” value amounted to 9.86%.
As to `CC(C)CN1CCN(Cc2c[nH]c3ccccc23)CC1CCO` (stereo not drawn), the “hERG current change (%, negative = inhibition) at 1uM” value is given as 11.2%.
On to `COc1ccc(C(=O)OCC(=O)N(C)C2CCS(=O)(=O)C2)cc1S(=O)(=O)N1CCCc2ccccc21` (stereo not drawn), for which the “hERG current change (%, negative = inhibition) at 1uM” value turned out to be 12.3%.
In the case of `CCn1nc(C)c(CN2CCN(Cc3cccc(OC)c3)C(CCO)C2)c1C` (stereo not drawn) it was 4.87%.
For `Cc1ccccc1NS(=O)(=O)c1nnc(NC(=O)c2ccc(Br)cc2)s1`, the “hERG current change (%, negative = inhibition) at 1uM” value is recorded as 13.4%.
For `NC(=O)NC(=O)COC(=O)c1ccccc1Oc1ccccc1`, the “hERG current change (%, negative = inhibition) at 1uM” value worked out at 11.6%.
To `NC(=O)Cn1nc(C(F)(F)F)c2c1CCCC2` belongs 10.4%.
In the case of `Nc1c(Cl)c(Cl)nc(C(=O)N/N=C/c2cccnc2)c1Cl` it was 1.63%; in that of `Nn1c(Nc2ccccc2)nc2sc3c(c2c1=O)CCCC3`, -8.36%; in that of `C=CCc1ccc(OCC(O)CN2CCc3ccccc3C2)c(OC)c1.Cl` (stereo not drawn), -42.1%.
Regarding `COc1ccc(S(=O)(=O)Cc2ccc(C(=O)N3CCC4(CC3)OCCO4)o2)cc1`, the “hERG current change (%, negative = inhibition) at 1uM” value is 5.59%.
In the case of `COc1cccc(NC(=O)[C@@H]2CCCN2C(=O)[C@@H]2Cc3ccccc3CN2C(=O)OC(C)(C)C)c1` it was 15.6%.
As to `COC(=O)C(Cc1csc2ccc(Cl)cc12)NC(=O)c1ccc(Cl)cc1` (stereo not drawn), the “hERG current change (%, negative = inhibition) at 1uM” value is given as 4.73%.
Take `CC1CCN(CCOCCOc2ccccc2-c2ccccc2)CC1`: the “hERG current change (%, negative = inhibition) at 1uM” value is listed as -21.6%.
In the case of `Cc1ccccc1-n1cnc2c(sc3nc(N4CCOCC4)c4c(c32)CCCC4)c1=O`, the “hERG current change (%, negative = inhibition) at 1uM” value is on record as 1.51%.
For `Cc1ccc(S(=O)(=O)Nc2ccccc2/C=N/c2nc3ccccc3n2C(C)C)cc1`, the “hERG current change (%, negative = inhibition) at 1uM” value is given as -1.23%.
In the case of `CCCS(=O)(=O)c1ccc(COC(=O)Cc2ccc([N+](=O)[O-])cc2)cc1` it was 14.1%; in that of `CN(C)S(=O)(=O)c1ccc(C(=O)NCCN2C(=O)S/C(=C\c3cccnc3)C2=O)cc1`, 1.77%; in that of `COc1cc(OC)c(OC)cc1/C=N/NC(=O)c1cnccn1`, 11.4%.
Turning to `O=C(O)c1ccccc1C(c1ccc(O)cc1)c1ccc(O)cc1`, the “hERG current change (%, negative = inhibition) at 1uM” value is recorded as 13.8%.
Regarding `CC(=O)N1CCN(c2cc(N3CCCC3)c(F)cc2[N+](=O)[O-])CC1`, the “hERG current change (%, negative = inhibition) at 1uM” value is on record as 10.5%.
As to `CCn1c(COc2ccccc2)nnc1SCC(=O)Nc1ccc2c(c1)OCCO2`, the “hERG current change (%, negative = inhibition) at 1uM” value was found to be 7.16%.
For `CCCN(CCC)C(=O)c1c(C)[nH]c(C(=O)OCC)c1C`, the “hERG current change (%, negative = inhibition) at 1uM” value worked out at 11.5%.
With `CCOC(=O)c1c(C)[nH]c(C(=O)CN2C(=O)NC(C)(c3ccc4ccccc4c3)C2=O)c1C` (stereo not drawn), the “hERG current change (%, negative = inhibition) at 1uM” value was found to be 3.22%.
To `COCCn1c(CN(Cc2ccccc2)Cc2ccccc2)nc2c1c(=O)n(C)c(=O)n2C` belongs -10.4%; to `CCOc1ccccc1OCC(=O)OCC(=O)c1c(C)[nH]c2ccccc12`, 8%.
Turning to `COc1ccc(CNC(=O)[C@H](Cc2c[nH]c3ccccc23)NC(=O)[C@@H]2Cc3ccccc3CN2)cc1`, the “hERG current change (%, negative = inhibition) at 1uM” value was -9.44%.
As for `O=C(Nc1ccc(C(F)(F)F)cc1)C1=NN(C2CCS(=O)(=O)C2)C(=O)CC1` (stereo not drawn), the “hERG current change (%, negative = inhibition) at 1uM” value amounted to 1.57%.
As to `COc1ccc(CCNC(=O)COc2ccc(N(C)S(=O)(=O)c3ccc(C)cc3)cc2)cc1`, the “hERG current change (%, negative = inhibition) at 1uM” value came to 5.94%.
Consider `C=COCCn1c(C)c(C(=O)OCC)c2cc(O)ccc21`, for which the “hERG current change (%, negative = inhibition) at 1uM” value was determined as 12.2%.
Regarding `CC(c1ccccc1)N1CCn2c(nc3cc(NC(=O)c4cccs4)ccc32)C1` (stereo not drawn), the “hERG current change (%, negative = inhibition) at 1uM” value worked out at 5.14%.
For `Cc1ccc(C2CC(=O)C=C(NCc3ccccc3)C2)cc1` (stereo not drawn), the “hERG current change (%, negative = inhibition) at 1uM” value is recorded as 3.27%.
As for `COc1ccc(NC(=O)CN(C)C(=O)c2ccc(NS(=O)(=O)c3ccc(C)c([N+](=O)[O-])c3)cc2)cc1`, the “hERG current change (%, negative = inhibition) at 1uM” value was determined as 11.7%.
With `CCOC(=O)C1CCCN(Cc2ccccc2C)C1` (stereo not drawn), the “hERG current change (%, negative = inhibition) at 1uM” value worked out at 3.79%.
As for `CCc1ccccc1NC(=O)C1CCCN(c2nn3c(=O)cc(C)nc3s2)C1` (stereo not drawn), the “hERG current change (%, negative = inhibition) at 1uM” value turned out to be 3.57%.
`Cc1nnc(NC(=O)CCSc2ccccc2)s1`: the “hERG current change (%, negative = inhibition) at 1uM” value is 9.77%.
`Cc1ccc(C(=O)NC2CCC(C)CC2)s1` (stereo not drawn): the “hERG current change (%, negative = inhibition) at 1uM” value amounted to 8.27%.
Regarding `Cc1nc(Nc2ccc3c(c2)OCCO3)c2oc3ccccc3c2n1`, the “hERG current change (%, negative = inhibition) at 1uM” value was found to be 3.23%.
Take `COC(=O)C1=C(c2ccc3ccccc3c2)C[C@@H]2CC[C@H]1N2C(=O)NCCO`: the “hERG current change (%, negative = inhibition) at 1uM” value was found to be 16.3%.
On to `C[C@H](NC(=O)[C@@H]1CSC2c3ccccc3C(=O)N21)C(=O)NCc1c(F)cccc1Cl` (stereo partly drawn), for which the “hERG current change (%, negative = inhibition) at 1uM” value was 7.02%.
As to `COc1ccccc1N1CCN(C(=O)C2c3ccccc3Oc3ccccc32)CC1`, the “hERG current change (%, negative = inhibition) at 1uM” value was 3.6%.
To `COc1ccc(NC(C)=O)cc1NC(=O)c1ccc(Cl)cc1` belongs 1.2%; to `O=C1COc2ccc(C(=O)COC(=O)c3sc4ccccc4c3Cl)cc2N1`, 4.07%; to `Cc1cc(C(=O)COC(=O)Cc2n[nH]c(=O)c3ccccc23)c(C)n1-c1ccc2c(c1)OCO2`, 14.5%.
Regarding `COc1ccc(S(=O)(=O)N2CCC(C(=O)NCc3cccnc3)CC2)cc1C`, the “hERG current change (%, negative = inhibition) at 1uM” value was 11.3%.
Regarding `COc1ccc(CN2CCN(C(=O)c3cccc4ccccc34)CC2)cc1Br`, the “hERG current change (%, negative = inhibition) at 1uM” value worked out at 9.47%.
For `O=C(CCSc1nnc(-c2ccco2)o1)N1CCOCC1`, the “hERG current change (%, negative = inhibition) at 1uM” value is -4.27%.
As for `Cc1cc(NC(=O)c2cccs2)ccc1NC(=O)Cc1ccccc1`, the “hERG current change (%, negative = inhibition) at 1uM” value is reported as 7.86%.
`COc1ccc(-c2noc(CCC(=O)N3CCN(Cc4ccccc4)CC3)n2)cc1`: the “hERG current change (%, negative = inhibition) at 1uM” value was -9.14%.
For the molecule `COc1ccccc1N1C(=O)C2C(c3ccccc3F)NN(C(=O)c3ccc(C)cc3)C2C1=O` (stereo not drawn), the “hERG current change (%, negative = inhibition) at 1uM” value was found to be 3.2%.
Regarding `COc1ccc(CSC2=NCCN2)cc1Br`, the “hERG current change (%, negative = inhibition) at 1uM” value is on record as 10.8%.
For `CC(C)(C)CN1C(=O)C(=O)NC[C@@H]1CCCCN`, the “hERG current change (%, negative = inhibition) at 1uM” value amounted to 17.2%.
In the case of `Cn1c(CNc2ccccc2)cc(=O)n(C)c1=O`, the “hERG current change (%, negative = inhibition) at 1uM” value is given as 10.3%.
